Assay results taken from the supplement of paper PMC3334620.
In all, about 33,000 sequences were measured (“E-score (-0.5 to 0.5)”: median about -0.012, highest 2% from about 0.27 on). Some of the results follow.

Target: T1, Vhr1 (UniProt P40522)
T1 sequence: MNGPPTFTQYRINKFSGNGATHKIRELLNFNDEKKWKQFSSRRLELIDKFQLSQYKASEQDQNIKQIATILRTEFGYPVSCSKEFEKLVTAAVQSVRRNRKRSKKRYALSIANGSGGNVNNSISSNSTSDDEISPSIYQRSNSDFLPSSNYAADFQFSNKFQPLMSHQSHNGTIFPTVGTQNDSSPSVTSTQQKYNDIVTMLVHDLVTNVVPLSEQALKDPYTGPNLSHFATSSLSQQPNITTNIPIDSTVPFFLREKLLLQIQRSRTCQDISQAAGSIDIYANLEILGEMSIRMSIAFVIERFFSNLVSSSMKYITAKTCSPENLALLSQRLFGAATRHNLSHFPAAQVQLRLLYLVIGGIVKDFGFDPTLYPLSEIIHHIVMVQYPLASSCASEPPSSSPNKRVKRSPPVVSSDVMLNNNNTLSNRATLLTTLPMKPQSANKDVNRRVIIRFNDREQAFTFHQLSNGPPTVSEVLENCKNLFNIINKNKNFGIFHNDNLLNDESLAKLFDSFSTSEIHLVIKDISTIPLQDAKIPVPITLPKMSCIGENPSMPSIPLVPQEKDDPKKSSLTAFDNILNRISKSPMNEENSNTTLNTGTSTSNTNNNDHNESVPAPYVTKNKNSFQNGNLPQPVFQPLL
Assay: PBM E-score (8-mer binding enrichment) (E-score (-0.5 to 0.5)); higher = stronger / more preferred TF binding; most listed sequences are background and not binding sites
Conditions: protein concentration: 200 nM; construct: GST-full length
Outline: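 For each ungapped eight-base word taken together with its reverse complement, the Universal PBM Analysis Suite assigned an E-score. Binding data came from GST-tagged yeast transcription factors, applied at about 100-200 nM, on universal all-10-mer Agilent arrays made double-stranded by primer extension. Fluorescent anti-GST marked bound protein, and scans were normalised with masliner.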

Sequence	PBM E-score
ACACACAA	0.226
CGAGCGCC	-0.0552
AGCTGAGG	-0.131
CGAGGACC	-0.0893
CCGGTTCG	-0.0156
AGCCATGC	0.128
AGATGGGG	-0.00259
AACTTAGA	-0.254
ACGAGCGT	-0.00766
CGTCTGGA	-0.0153
AGCTCACA	-0.0321
CACTAGAC	0.0875
ACTGCTAA	-0.231
ATAGTGCA	-0.056
GGATCCTA	-0.0765
AGCTTTAT	-0.243
GACATTGA	-0.0452
AAATAGCA	-0.229
CTCGCGGA	0.0268
CCATCCAG	0.077
ATTTCCAA	-0.268
CCCATCAA	0.137
TGCTGCCA	-0.00984
CACCTTCC	0.106
AAAGTCTA	-0.357

Sequence	PBM E-score
ATTCCACA	0.231
GAGAACAA	0.00865
ACTGACGC	-0.178
AGGACTTG	-0.0923
GCGAAGGA	-0.0901
GTATAGGA	-0.121
GCCCCAGC	-0.0658
AAGTTCCC	-0.169
GGTTCCAC	-0.0956
CGCCCGGA	-0.0796
CACTGCAA	0.0472
CCATAAGG	-0.0996
AATCGGCG	-0.101
TAAGGTCA	-0.0887
ACGTCGCT	-0.18
ACGTAGAA	0.0335
TGAATCAA	0.267
ATCATCTC	0.201
GTTCAACA	-0.0787
AAACACCA	0.129
ACGGCCCA	0.0113
CAGTCTAG	-0.131
AGTTTCCG	-0.0842
ATTGGGCA	-0.189
CTAGGTCA	0.0199

Sequence	PBM E-score
ATCGCTGG	-0.0087
CACACGGA	0.0457
GGGCTACC	-0.136
CTGCGACA	0.0241
ATAGTACG	0.231
CAATGATC	0.0242
ATTGGACA	0.12
AAGCCAAG	-0.0392
CATCGATG	0.302
ATGTAGAC	0.0122
ATAGTTAG	0.0663
TAGGATGA	0.17
GTATTGTA	0.0913
CTCAAGAG	-0.287
AGCTCTAA	-0.127
AGCATGCA	0.0173
CACTAATA	0.179
AGACACCT	0.0122
CCTTACCG	-0.0858
ATATTGTA	0.211
AGTTTGAA	-0.087
CTCTCAGC	-0.233
CCCGCTCG	-0.0213
ACGCAGAA	0.00834
ACAATTGA	0.0612

Sequence	PBM E-score
GTTTAAGA	-0.163
ACCGCAGC	0.132
AGATTAAC	-0.063
ATACCAGG	-0.0349
CCACGGGC	0.0619
GTCTGGTA	0.0181
GATGAAGC	0.00702
GGCTCGAA	-0.0341
TCTACCCA	0.239
GAGGACCC	-0.0811
ATAATCAG	0.0967
CATGGGTA	0.27
CGTATGAC	0.142
ACCTAGCG	-0.191
ATAGCTGG	-0.0684
AGGGGCGG	0.348
CAATAGGG	0.0965
CGAGTCCC	0.186
ACATTGTC	0.21
AAACCCAC	0.209
CACGTAAG	-0.163
CCGCTGTC	-0.0214
AAGCCTGC	-0.0256
ATTGACAA	-0.136
TATACCGA	0.015

Sequence	PBM E-score
CCAGCAAA	0.165
AAATTTGC	-0.273
AAATACTA	-0.0647
TAACAACA	0.0828
CTTGTTGC	0.106
ATTAGCCG	0.0068
CACGTGCG	-0.0625
CACCTCCA	0.0657
ACACGTTA	-0.105
AAAAATTC	-0.198
AAAAGCAC	-0.262
ACCATAGC	0.081
CTCTTTGC	-0.2
AACAGTTC	0.0166
GTTAACAA	0.0338
CGGTGCAG	-0.198
ACCTCTAC	-0.0884
GGACCCCA	0.136
CAACTTTC	-0.0821
GAGAGGTA	-0.109
GTAGATTA	0.128
CTAGACAC	-0.0101
ATAGGCTA	-0.0189
CCTAATTC	-0.0361
TGCAGGAA	0.041

Sequence	PBM E-score
AAAAACCG	-0.111
AAGACGGA	0.0362
TATCTGAA	-0.161
CTCGACCC	0.259
ATAGGAGC	-0.0762
AATTTCGA	-0.149
GAAGAGAA	-0.115
CATATGGG	0.263
CAAATCAC	0.0735
AGATGCCT	-0.203
AGTAAACG	-0.00785
CGATGAAA	-0.0595
AATACTTC	-0.0901
CGTAACCC	-0.0872
ACATCGTC	0.217
CATTGTCC	-0.0189
GTCGCACA	0.0469
GCGCCAAA	-0.0935
CCTCGGAC	-0.13
ACTCGACG	0.269
GCCTCCGC	-0.022
CCGATTAA	-0.109
GCCGTCCC	-0.0648
CATCTGTC	-0.059
CCAGTCCA	-0.0216

Sequence	PBM E-score
CCCAAATC	-0.0483
AACAGGAA	-0.127
AGCAGGTC	-0.0671
AGACTGCA	0.0124
CCAGGATC	0.0101
ATCACTCG	0.113
AGCTGCAG	-0.0288
GTTTTAGA	-0.194
CCTAAAGG	-0.299
GCTCCTTA	-0.134
TCGCCCCA	0.0408
AACTACGA	0.0612
AAGCACTA	-0.0763
CACTAGGA	-0.0545
TATTGGCA	0.162
ATGTTAGA	-0.223
CTATTATA	0.0973
CCACTACC	0.0705
GGAGCGCC	0.00749
CCTCCGAC	-0.0621
CTAACACA	0.269
CCCGAGCC	0.104
